Assay results from the antibiotic and cytotoxicity screens of Wong et al. (2023).
The list shows a part of the results.

Key:
HSkMC = human skeletal muscle cells; test: cytotoxicity call (relative viability < 0.9); conditions: 10 µM
HepG2 = test: cytotoxicity call (relative viability < 0.9); conditions: 10 µM
S. aureus RN4220 = test: growth inhibition call (relative growth <= 0.2); conditions: 50 µM

Row | SMILES | cytotoxicity call (HSkMC) | cytotoxicity call (HepG2) | growth inhibition call (S. aureus RN4220)
1 | Cc1ccccc1S(=O)(=O)N1C[C@H](O)COC[C@@H]2O[C@H](CC(=O)N3CCC(Cc4ccccc4)CC3)CC[C@H]21 | inactive | inactive | inactive
2 | Cc1noc(C)c1S(=O)(=O)Nc1ccc2c(c1)C(=O)N([C@H](C)CO)C[C@@H](C)[C@@H](CN(C)S(=O)(=O)c1cccs1)O2 | inactive | inactive | inactive
3 | C=CCNC(=O)[C@H]1CCCN(S(C)(=O)=O)C1 | inactive | inactive | inactive
4 | Cc1ccc(S(=O)(=O)N(C)C[C@H]2Oc3ccc(NC(=O)Nc4cccc5ccccc45)cc3C(=O)N([C@@H](C)CO)C[C@H]2C)cc1 | inactive | inactive | inactive
5 | CN(C)c1ccc(O)c2c1CC1CC3C(N(C)C)C(O)=C(C(N)=O)C(=O)C3(O)C(O)=C1C2=O.Cl (centres undefined) | inactive | inactive | inactive
6 | Cc1noc(C)c1NC(=O)N(C)C[C@@H]1Oc2ncc(C#CCN(C)C)cc2C(=O)N([C@@H](C)CO)C[C@@H]1C | inactive | inactive | inactive
7 | C[C@@H]1CN([C@H](C)CO)C(=O)c2cccc(NC(=O)c3cnccn3)c2O[C@@H]1CN(C)Cc1ccccc1 | inactive | inactive | inactive
8 | Cc1ccc(S(=O)(=O)N(C)C[C@H]2OCCCC[C@@H](C)Oc3ccc(NC(=O)CCC(F)(F)F)cc3C(=O)N([C@H](C)CO)C[C@@H]2C)cc1 | inactive | inactive | inactive
9 | C[C@H]1CCCCO[C@H](CN(C)Cc2ccncc2)[C@@H](C)CN([C@@H](C)CO)C(=O)c2cc(NC(=O)Nc3ccc(C(F)(F)F)cc3)ccc2O1 | inactive | active | inactive
10 | C[C@@H]1CCCCO[C@H](CN(C)S(=O)(=O)c2ccc(Cl)cc2)[C@H](C)CN([C@@H](C)CO)C(=O)c2cc(NS(=O)(=O)c3ccccc3)ccc2O1 | inactive | inactive | inactive
11 | C[C@@H]1CN([C@@H](C)CO)S(=O)(=O)c2ccc(/C=C/c3ccccc3)cc2O[C@@H]1CN(C)C(=O)Nc1cc(F)ccc1F | inactive | inactive | inactive
12 | O=C(C[C@H]1CC[C@@H](NS(=O)(=O)c2ccc(F)cc2)[C@@H](CO)O1)N1CCC(Cc2ccccc2)CC1 | inactive | inactive | inactive
13 | C[C@@H]1CN([C@@H](C)CO)C(=O)Cc2cc(NS(=O)(=O)c3cn(C)cn3)ccc2O[C@@H]1CN(C)C(=O)Nc1ccc(F)cc1 | inactive | inactive | inactive
14 | O=c1cc(-c2ccccc2)oc2c(O)c(O)ccc12 | inactive | active | inactive
15 | C[C@@H]1CN([C@@H](C)CO)C(=O)c2cccc(NC(=O)c3nc4ccccc4s3)c2O[C@@H]1CN(C)C(=O)Nc1cccc2ccccc12 | inactive | inactive | inactive
16 | Cn1nc(C#N)c2c1CN(S(C)(=O)=O)CCC2 | inactive | inactive | inactive
17 | C[C@H](CO)N1C[C@H](C)[C@H](CN(C)Cc2ccc(Oc3ccccc3)cc2)Oc2ccc(NS(=O)(=O)c3cccs3)cc2CC1=O | inactive | inactive | inactive
18 | C[C@H](CO)N1C[C@H](C)[C@H](CN(C)S(=O)(=O)c2ccc(F)cc2)Oc2ncc(-c3cccc(C(=O)N(C)C)c3)cc2C1=O | inactive | inactive | inactive
19 | O=C(C1=C[C@H](c2csc3ccccc23)C[C@H](OCc2ccc(CO)cc2)O1)N1CCN(Cc2ccc3c(c2)OCO3)CC1 | inactive | inactive | inactive

Row | SMILES | cytotoxicity call (HSkMC) | cytotoxicity call (HepG2) | growth inhibition call (S. aureus RN4220)
20 | C[C@@H]1CN([C@H](C)CO)C(=O)c2cc(NC(=O)C3CCCCC3)ccc2O[C@@H](C)CCCCO[C@H]1CN(C)Cc1ccc(Cl)c(Cl)c1 | inactive | active | inactive
21 | C[C@@H]1CCCCO[C@@H](CN(C)C(=O)c2ccncc2)[C@@H](C)CN([C@H](C)CO)C(=O)c2cc(NS(=O)(=O)c3cn(C)cn3)ccc2O1 | inactive | inactive | inactive
22 | Cc1noc(C)c1NC(=O)Nc1ccc2c(c1)C(=O)N([C@@H](C)CO)C[C@H](C)[C@H](CN(C)Cc1ccc(Cl)c(Cl)c1)OCCCC[C@@H](C)O2 | inactive | inactive | inactive
23 | Cc1ccc(S(=O)(=O)N(C)C[C@@H]2Oc3ccc(NC(=O)Nc4cccc5ccccc45)cc3CC(=O)N([C@@H](C)CO)C[C@@H]2C)cc1 | inactive | inactive | inactive
24 | C[C@@H]1CN([C@@H](C)CO)C(=O)Cc2cc(NS(=O)(=O)c3ccccc3)ccc2O[C@H]1CN(C)Cc1ccc2c(c1)OCO2 | inactive | inactive | inactive
25 | COCC(=O)Nc1ccc2c(c1)C(=O)N(C)[C@H]1CC[C@H](CC(=O)N3CCc4ccccc4C3)O[C@H]1CO2 | inactive | active | inactive
26 | C[C@H]1CN([C@@H](C)CO)C(=O)c2cccc(NC(=O)C3CC3)c2O[C@@H]1CN(C)S(=O)(=O)c1ccc(F)cc1 | inactive | inactive | inactive
27 | CC(C)NC(=O)N(C)C[C@@H]1Oc2ccc(NC(=O)Cn3cnnn3)cc2CC(=O)N([C@H](C)CO)C[C@H]1C | inactive | inactive | inactive
28 | COc1ccc2c3c(n(c2c1)C)[C@@H](CO)N(C[C@]13CN(C1)C(=O)C1CCOCC1)C(=O)C1CCOCC1 | inactive | inactive | inactive
29 | C[C@@H]1CCCCO[C@H](CN(C)C(=O)C2CCCCC2)[C@H](C)CN([C@H](C)CO)C(=O)c2cc(NC(=O)CCC(F)(F)F)ccc2O1 | inactive | inactive | inactive
30 | CC(C)NC(=O)Nc1cccc2c1O[C@@H](CN(C)Cc1ccc(C(=O)O)cc1)[C@@H](C)CN([C@H](C)CO)C2=O | inactive | inactive | inactive
31 | CN(C)c1nc(N)nc(CSc2nnnn2C)n1 | inactive | inactive | inactive
32 | CCNc1nc(=O)cc(F)[nH]1 | inactive | inactive | inactive
33 | COc1ccc(CN(C)C[C@H]2OCCCC[C@@H](C)Oc3ccc(NS(=O)(=O)c4ccc(F)cc4)cc3C(=O)N([C@@H](C)CO)C[C@H]2C)cc1 | inactive | inactive | inactive
34 | COc1ccc(CN(C)C[C@H]2OCCCC[C@H](C)Oc3ccc(NC(=O)c4ccccc4)cc3C(=O)N([C@H](C)CO)C[C@H]2C)cc1 | inactive | inactive | inactive
35 | COc1ccc(S(=O)(=O)N(C)C[C@@H]2Oc3ccc(N(C)C)cc3CC(=O)N([C@@H](C)CO)C[C@@H]2C)cc1 | inactive | inactive | inactive
36 | C[C@@H]1CN([C@H](C)CO)C(=O)c2cc(NC(=O)Cc3ccccc3)ccc2O[C@@H](C)CCCCO[C@H]1CN(C)C(=O)Nc1ccccc1 | inactive | active | inactive
37 | C[C@@H]1CCCCO[C@H](CN(C)S(=O)(=O)c2ccc(Cl)cc2)[C@H](C)CN([C@@H](C)CO)C(=O)c2cc(NC(=O)CCC(F)(F)F)ccc2O1 | inactive | inactive | inactive
38 | C[C@@H]1CCCCO[C@@H](CN(C)Cc2ccc(C(F)(F)F)cc2)[C@@H](C)CN([C@H](C)CO)C(=O)c2cc(NC(=O)C3CCCCC3)ccc2O1 | inactive | inactive | inactive
